In all, about 33,000 sequences were measured (“E-score (-0.5 to 0.5)”: median about -0.036, highest 2% from about 0.37 on). Some of the results follow.
Target: T1, Yer064c (UniProt P40041)
T1 sequence: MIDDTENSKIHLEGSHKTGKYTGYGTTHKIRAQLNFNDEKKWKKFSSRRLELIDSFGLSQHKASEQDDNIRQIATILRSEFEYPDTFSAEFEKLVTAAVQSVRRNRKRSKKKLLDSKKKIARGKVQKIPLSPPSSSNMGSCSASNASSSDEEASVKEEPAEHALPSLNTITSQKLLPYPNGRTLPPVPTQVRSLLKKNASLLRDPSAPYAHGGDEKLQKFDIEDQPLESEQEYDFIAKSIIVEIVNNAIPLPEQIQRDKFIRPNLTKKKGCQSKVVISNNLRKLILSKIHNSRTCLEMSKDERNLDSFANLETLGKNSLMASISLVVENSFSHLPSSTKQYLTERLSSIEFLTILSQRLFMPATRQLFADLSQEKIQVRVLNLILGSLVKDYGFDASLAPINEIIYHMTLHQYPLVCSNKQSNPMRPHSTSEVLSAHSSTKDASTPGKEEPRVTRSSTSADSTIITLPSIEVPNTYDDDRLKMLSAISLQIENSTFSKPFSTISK
Assay: PBM E-score (8-mer binding enrichment) (E-score (-0.5 to 0.5)); higher = stronger / more preferred TF binding; most listed sequences are background and not binding sites
Conditions: protein concentration: 200 nM; construct: GST-full length
In short: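 Bound GST-tagged yeast transcription factors, applied at about 100-200 nM to double-stranded universal all-10-mer Agilent arrays, were detected with fluorescent anti-GST. Scans were normalised with masliner. A modified Wilcoxon-Mann-Whitney statistic, the E-score, was assigned to each ungapped eight-base word pooled with its reverse complement by the Universal PBM Analysis Suite.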

Sequence | PBM E-score
CTAAACTC | -0.0742
AGATTACT | 0.2
ATTACATA | 0.177
ACTGCCTA | 0.0997
AAAAGTAA | 0.112
CCACCTCG | -0.0976
AGGTGAAT | 0.0826
ACATCCAG | -0.127
CCGAAAGG | -0.127
CACGACGG | -0.126
CGATAGCC | -0.0746
CCTGTTCG | -0.17
TGTATGAA | -0.0394
AACTTCAT | -0.102
GGGATTCA | 0.147
CTCGTATA | 0.0865
CCAATGCA | -0.111
AGAGAAAC | -0.147
CTGGGGCA | -0.27
TAACGTCA | 0.169
AGAACCCC | -0.27
AACCGGCC | -0.137
GTGACTGA | 0.447
GCGAGAAA | -0.0263
GTAAACGA | 0.0779

Sequence | PBM E-score
AAGGCGCA | -0.171
CAATGAGG | -0.258
AGTGCTAT | -0.068
CAATAGGC | -0.0939
CTGTATGC | -0.14
GGGGGGAA | -0.136
GAAAGATC | -0.269
GAGGGGCA | -0.423
GGAAGGTA | -0.105
GAGTAACC | 0.126
CTAAGCGA | 0.0665
CCAGTAAG | -0.0204
GCTCCTAC | -0.155
GCGCAGCA | 0.0607
ACGTCCCA | -0.206
AGCTAGGC | -0.213
CATGTCGC | -0.0755
GGTACGGA | 0.165
ACTGCGAA | -0.0747
AGGGTAGA | -0.0702
CGCCAACG | -0.211
ACAAGATA | 0.0511
AGCCCCCG | -0.297
GGACGGAA | -0.108
GGTTGCCA | -0.186

Sequence | PBM E-score
GCAGCGAC | -0.00713
ACTGGCGC | -0.223
CCCTTCTA | -0.14
CGCGGACG | -0.105
AGCCGCCT | -0.127
GGCACAGA | -0.218
ACTCTGAT | 0.215
GCTATCCC | -0.393
ACGCTTTG | -0.223
AGCGTAAG | -0.188
CAGCCTAG | -0.116
AAGCAAAT | 0.0533
ATCACGAG | 0.167
AGGACCAG | -0.218
ATCGTTGC | -0.0546
ATTGAACG | 0.17
CTGGTAAA | 0.0683
CTGTGTGC | 0.0798
CACAGGAG | -0.0707
CTCGAACC | -0.233
CGTGCCCC | -0.266
CGCTACGA | 0.00912
TAACAGTA | -0.019
CATTGTCG | 0.0862
AACACAAA | 0.0141

Sequence | PBM E-score
TCAAAGCA | 0.0603
ACGTTACT | 0.135
ACAGTCAA | 0.319
AGAGTAAA | 0.0996
GCGAGCTA | -0.116
GGACGCAA | -0.24
ATAGTAAC | 0.0434
ATGCGTCC | -0.227
ACGCACGA | -0.017
CAGGCTAG | -0.137
ATAGTTCG | -0.0717
CTGTGAAA | -0.0469
AAATTCCT | -0.0529
CGTGTCAG | 0.0286
CCTCCAGC | -0.233
ATATACAT | 0.248
GAAACTAC | 0.00139
CATTGTAG | 0.0681
CTTGTTCC | -0.15
AGGTATTG | -0.0352
ACGACCTC | 0.141
GAACACTA | 0.0361
ATTGTTTA | 0.158
GCACAGAA | -0.113
CATACCAA | 0.0259

Sequence | PBM E-score
CTGCGTTC | -0.157
CCGGAGTA | 0.0206
ACTGGGAC | 0.0246
AGACGATC | -0.299
AACAACGT | -0.112
GCACAGCA | -0.0913
CCCGCGGG | -0.0605
ATCGTCTG | 0.0228
GGACCGTA | -0.0438
ACGTGCCA | -0.209
GGCGGCCA | -0.204
ATATTCGG | -0.116
ATTTACGC | -0.0772
TATACTAA | 0.149
GCTTGCTA | -0.312
AGTTGAGA | 0.0944
CGCACACA | 0.143
AAGTTTCA | 0.0363
CGTCAGTC | 0.291
GGCGCCAA | -0.352
ACCGACAG | -0.208
ACCGAGTC | 0.377
ACTATATA | 0.18
CCCGACCC | -0.207
CTGATAAA | 0.157

Sequence | PBM E-score
GATAGCCA | 0.112
AGGCCCAG | -0.281
CATGCTAC | -0.135
CCGTGCTC | -0.21
CCTCGTCC | -0.198
GGTATGAC | 0.308
ATATGTTC | -0.139
CCTCTGAA | -0.0251
ATAATCAC | 0.385
TTACAAAA | 0.0752
GGCCCAGA | -0.391
AAGCCGAT | -0.0488
CCCCGGGA | -0.193
AGAAGATC | -0.32
CCTGCGGC | -0.405
AAACCACC | 0.0204
ACTACCCA | 0.135
AGCAACAT | -0.139
CCGAGCTC | -0.0589
CCAGTGCA | -0.0779
AGGTCATA | 0.171
ACATAAAT | -0.0522
GGACTAAC | 0.367
CAGTCGAG | -0.0393
GACCTGGA | -0.0618

Sequence | PBM E-score
AACCTCCT | -0.186
AAAGAATG | 0.178
AGCCTAAC | -0.0685
GCCCCACC | -0.136
AGTGGCCC | -0.282
CAATCCGA | 0.129
ACCAAAAC | -0.106
TAACACTA | 0.18
ATGTCTCC | 0.216
ACCGGGAG | -0.212
AGGACCGG | -0.187
GGACCGGA | -0.143
CTGGACGC | -0.15
CGTGAAGA | -0.0808
GAATATCA | -0.0168
CCTTCTTA | -0.0621
GGCAGCCA | 0.0126
CACAACCG | -0.14
ATAAGATC | -0.0195
CAGATCCC | -0.247
ATGTGGAC | -0.0654
CTACTTGA | 0.0304
